# Measured values as given in PubChem BioAssay AID624296 (National Center for Advancing Translational Sciences (NCATS), 2012).
# The whole screen tested about 350,000 compounds, of which about 9,900 (2.8%) were called active. Inconclusive results, whose numbers are uncertain, are shown with a selection of clear calls. The call rests on the fitted dose curve; in most records, active means well fitted activation curve with a large enough effect; inconclusive means small, poorly fitted or top-dose-only effect; inactive means no such curve, though single readings can be large or run the other way. Potencies of inconclusive entries are left out as doubtful fits.
# Test: A quantitative high throughput screen for small molecules that induce DNA re-replication in MCF 10a normal breast cells. Further: nearly all actives have a fitted effect of over 50% in size. On activity, positive = re-replication: % of control where 0% means no effect.
# Details: MCF 10A DNA re-replication, Hoechst nuclear intensity, 48 h; activity, positive = re-replication: at 46.1 µM (top of the series)
# Potency means the concentration at half of the fitted maximal effect; tags describe the fitted curve by direction and shape.
SMILES,Potency,"activity, positive = re-replication"
O=C(COC(=O)c1ccccc1[N+](=O)[O-])NCCCc1ccccc1,active: 18.4 µM,
O=C(NCc1cccnc1)c1cccc(C(F)(F)F)c1,"inconclusive [activator, single point]",
Cc1ccc(-c2ocnc2C(=O)Nc2ccccc2C(=O)N2CCCC2)cc1,"inconclusive [activator, single point]",
N#Cc1c2ccc(O)cc2n2ccccc12,"inconclusive [activator, single point]",
N#Cc1c(Cl)cccc1Oc1ccc(S(=O)(=O)Nc2ccccc2)cc1,"inconclusive [activator, full curve, poor fit]",
Cc1cc(N2C(=O)C(=O)/C(=C(/O)c3ccc(Cl)cc3)C2c2cccc(Br)c2)no1 (stereo not drawn),"inconclusive [activator, full curve, poor fit]",
Cc1cc(C)c2c(n1)sc1c(N3CCN(CCO)CC3)ncnc12,"inconclusive [activator, single point]",
O=C(NCCCN1CCCC1=O)c1c(O)nc2sccn2c1=O,,inactive: 2.05%
COCc1cc(=O)[nH]c(Nc2nc3ccccc3o2)n1,"inconclusive [activator, full curve, poor fit]",
CCOc1cccc2sc(=NC(=O)c3ccc(S(=O)(=O)N4CCOCC4)cc3)n(C)c12,"inconclusive [activator, full curve, poor fit]",
Cc1ccccc1C(=O)NCC(=O)OCCCOC(=O)CNC(=O)c1ccccc1C,"inconclusive [activator, partial curve, poor fit]",
Fc1ccc(Cn2ccc(-c3cnc(-c4ccccc4)s3)n2)cc1,"inconclusive [activator, single point]",
COC(=O)c1ccccc1NC(=O)NC1CCCCC1,"inconclusive [activator, partial curve, poor fit]",
COCOc1ccc(/C=C/C(=O)c2c(O)cc(OCOC)cc2OCOC)cc1,"inconclusive [activator, partial curve, poor fit]",
CC(=O)N1CCc2ccc(S(=O)(=O)N3CCc4ccccc43)cc21,,inactive: -1.43%
S=c1[nH]nc(COc2ccccc2)n1/N=C/C(Cl)=C/c1ccccc1,"inconclusive [activator, single point]",
CCOC(=O)C1=C(O)/C(=C/c2cc(OC)c(O)c(OC)c2)SC1=Nc1ccc(OC)cc1,active: 16.4 µM,
CN(C)c1nc(NCc2ccccc2)nc(SCC(=O)Nc2ccccc2Cl)n1,"inconclusive [activator, single point]",
